# The list shows a part of the results. Single values are uncertain, as repeats are few or missing.
# Tested on: UACC257
# Assay: cell count relative to DMSO control; melanoma cells; higher = more viable cells
# Conditions: library dose: standard library concentration; 72 h
# 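Note: cells treated in 1,536-well plates, then fixed and DAPI-stained, with nuclei counted from automated high-throughput microscope images.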
row,SMILES,cell count [%]
1,"CS(=O)(=O)CCNCc1ccc(-c2ccc3ncnc(Nc4ccc(OCc5cccc(F)c5)c(Cl)c4)c3c2)o1 [lapatinib] + COc1cc2ncnc(Nc3ccc(Oc4ccccc4)cc3)c2cc1OC [SrcI1] (first compound 4 µM, partner dose 10 µM)",74.6
2,"CNC(=O)c1cc(Oc2ccc(NC(=O)Nc3ccc(Cl)c(C(F)(F)F)c3)cc2)ccn1 [sorafenib] + COc1ccc2c(c1)CCC1C2CCC2(C)C(NCCCCCCN3C(=O)C=CC3=O)CCC12 [U73122] (first compound 2 µM, partner dose 2 µM)",77.3
3,"CNC(=O)c1cc(Oc2ccc(NC(=O)Nc3ccc(Cl)c(C(F)(F)F)c3)cc2)ccn1 [sorafenib] + Cc1cc([N+](=O)[O-])ccc1NS(=O)(=O)c1cc(Cl)ccc1Cl [FH535] (first compound 2 µM, partner dose 5 µM)",46.8
4,"CN1CCN(c2ccc3nc(-c4c(N)c5c(F)cccc5[nH]c4=O)[nH]c3c2)CC1 [Dovitinib] + CCc1ccc(CCOc2ccc(CC3SC(=O)NC3=O)cc2)nc1 [pioglitazone] (first compound 0.5 µM, partner dose 10 µM)",74.6
5,"C=CCNC1=C2C[C@@H](C)C[C@H](OC)[C@H](O)[C@@H](C)/C=C(\C)[C@H](OC(N)=O)[C@@H](OC)/C=C\C=C(/C)C(=O)NC(=CC1=O)C2=O [Tanespimycin] + N#Cc1c(O)c2c(-c3ccc(-c4ccccc4O)cc3)csc2[nH]c1=O [A769662] (first compound 0.01 µM, partner dose 10 µM)",94.5

# Reference: the supplement of paper PMC4604168 (melanoma cell lines)
